In PubChem BioAssay AID924 (National Center for Advancing Translational Sciences (NCATS), 2007):
Hit rate of the full screen: of about 130,000 compounds, about 1,200 (0.92%) were called active. Inconclusive means that the source gave no clear call. Such entries were picked first, then a sample of the others. The call rests on the fitted dose curve; in most records, active means well fitted cell-killing curve with a large enough effect; inconclusive means small, poorly fitted or top-dose-only effect; inactive means no such curve, though single readings can be large or run the other way. A potency beside an inconclusive call is a rough fit, not a confirmed value.
Potency means the concentration at half of the fitted maximal effect; tags describe the fitted curve by direction and shape.

Assay: qHTS Screen for Compounds that Selectively Target Cancer Cells with p53 Mutations: Cytotoxicity of p53ts Cells at the Permissive Temperature; further: nearly all actives have a fitted effect of over 55% in size;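 on activity change, negative = cytotoxicity: 0% = DMSO and -100% = full killing by reference compound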
Details: H1299-p53A138V at 32C, ATP luminescence viability, 24 h; activity change, negative = cytotoxicity: at 46.1 µM (top of the series)
Text: NIH Chemical Genomics Center [NCGC] NIH Molecular Libraries Screening Centers Network [MLSCN] MLSCN Grant: 1 X01 MH079844-01 Assay Submitter (PI): Dr. SUN, YI, University of Michigan NCGC Assay Overview: Synthetic Lethal Screen for Compounds to Kill Cancer Cells with p53 Mutation. Tumor suppressor gene p53 serves as a major cellular barrier against tumorigenesis. […] The goal of this screening is to identify small molecule probes that selectively kill cancer cells with mutations in p53. This screening was carried out using two lines of H1299 lung cancer cells. The H1299-p53 A138V line express a temperature sensitive p53 mutant (p53ts) in which the mutant p53 protein (A138V) is in the mutant confirmation when grown at 39C (the nonpermissive temperature) and in the wild type conformation when grown at 32C (the permissive temperature). A H1299-neo line (p53 null) grown at both 39C and 32C were used as counter-screens to filter out false positive associated with temperature shifting. The small molecular compounds that selectively target mutant p53-containing cancer cells were selected as candidate probes for further study. A cytotoxicity assay based on the measurement of ATP contents in cells was used in this screen. Concentration-responses of all the compounds in the library collection were determined in qHTS using the cell lines and temperature conditions as above.
NCGC Assay Protocol Summary: Both the H1299-p53A138V and H1299-neo cell lines were provided by Dr.Yi Sun, a PI at the University Michigan. The cells were maintained and cultured at 37C. The resuspended frozen cells were used to plate the cells in the 1536-well assay plates at a density of 600 cells per well in 5 ul medium. The assay plates with the cells were incubated at 37C for 16 to 30 hours before the experiments. The library compounds in DMSO solution were added to the cells in assay plates and incubated 24 hours at 39C (for mutant p53 conformation) or 32C (for normal p53 conformation as control). An ATP_lite assay kit (PerkinElmer) was used to determine the cell viability. Tomaxifen (100uM) was used as the positive control for cell killing. Data were normalized to the controls for basal activity (DMSO only) and 100% killing (100uM tamoxifen). AC50 values were determined from concentration-response data modeled with the standard Hill equation. P53 assay protocol: 1. Reagent; 5 uL H1299-p53A138V or H1299-neo cell cells/well 2. Time; overnight; 37C incubation 3. Compounds; 23 nL; 5.9 nM to 46 uM 4. Controls; 23 nL; Tamoxifen 100 uM 5. Time; 24 hr; 37C incubation 6. Reagent; 3 uL; ATP_Lite reagent 7. Time; 20 min; Room Temperature 8. Detection; Luminescence; Viewlux plate reader Keywords: p53, synthetic lethal, cancer, cell viability, cytotoxicity, H1299 cell line, luminescence, MLSMR, MLSCN, NIH Roadmap, qHTS, NCGC
For `N/C(=N\OC(=O)c1ccccc1Cl)c1cccnc1`, the Potency was inconclusive: 12.6 µM [cytotoxic, partial curve]. With `COc1ccc(-n2cc(-c3ccc4c(c3)OCO4)n(CC(=O)Nc3cc(Cl)ccc3C)c2=O)cc1` the Potency was active: 10 µM. In the case of `COc1ccc(-n2nc3ccc(NC(=O)c4cccc(OCCC(C)C)c4)cc3n2)cc1`, the Potency is reported as inconclusive: 15.8 µM [cytotoxic, single point]. For `C=CCn1c(-c2cccs2)nc2nc3ccccc3nc21`, the Potency was inconclusive: 10 µM [cytotoxic, partial curve]. With `COc1cccc(NC(=O)c2ccc(CN3CCN(c4ccccc4)CC3)cc2)c1` the Potency was inconclusive: 6.31 µM [cytotoxic, full curve, poor fit]. In the case of `O=C(CSc1ncc(-c2ccccc2)[nH]1)Nc1cccc(Br)c1`, the “activity change, negative = cytotoxicity” value is reported as inactive: -11.1%. For `CCOC(=O)N1CCN(Cc2nc3cc(NC(=O)c4ccccc4Cl)ccc3n2C(C)C)CC1`, the Potency was inconclusive: 5.62 µM [cytotoxic, single point]. For `C=C(C)COc1ccc(-c2[nH]ncc2Oc2ccccc2OCC)c(O)c1`, the Potency was inconclusive: 25.1 µM [cytotoxic, single point]. For `CC(C)(C)C1CCc2c(sc(NC(=O)c3noc4c3CCCC4)c2C#N)C1` (centres undefined), the “activity change, negative = cytotoxicity” value was inactive: 10.1%. In the case of `COc1ccc(C(CCN(Cc2ccc(OC)c(OC)c2)C(=O)CCl)c2ccccc2)cc1` (centres undefined), the Potency is reported as active: 5.01 µM. With `O=C(O)c1ccc(NS(=O)(=O)Cc2ccccc2)cc1` the activity change, negative = cytotoxicity was inactive: -6.4% [at 9.22 µM]. For `CCc1ccc(NS(=O)(=O)c2ccc3oc(=O)c4ncn(CC)c4c3c2)cc1`, the Potency was inconclusive: 20 µM [cytotoxic, single point]. In the case of `COc1ccc(NC(=O)CCS(=O)(=O)c2nc(-c3cccs3)cc(C(F)(F)F)n2)cc1`, the Potency is reported as inconclusive: 35.5 µM [cytotoxic, single point]. With `Cc1ccc(-c2cc(C(=O)NCc3cnn(C)c3C)c3ccccc3n2)cc1C` the Potency was inconclusive: 10 µM [cytotoxic, partial curve]. With `COC(=O)c1ccc(CSc2nc(C)nc3c2c(=O)n(C)c(=O)n3C)o1` the Potency was inconclusive: 0.562 µM [cytotoxic, full curve, poor fit]. In the case of `COc1ccc(NC(=O)CCS(=O)(=O)c2nc(-c3ccc4c(c3)OCO4)cc(C(F)(F)F)n2)cc1`, the Potency is reported as inconclusive: 31.6 µM [cytotoxic, single point]. For `Cc1ccc(-c2cc(N)n(-c3ccc(C)cc3)n2)cc1`, the Potency was inconclusive: 15.8 µM [cytotoxic, partial curve]. With `COc1cc(/C=C(\C#N)c2nc3ccccc3[nH]2)ccc1OCc1ccc(F)cc1` the Potency was inconclusive: 12.6 µM [cytotoxic, single point]. With `CCc1ccc(C(=O)NC2CCCCC2)s1` the Potency was inconclusive: 12.6 µM [cytotoxic, single point]. With `CC(=O)N1CCc2c(sc3nc(SCC(C)C)n(-c4ccc(C)c(Cl)c4)c(=O)c23)C1` the Potency was inconclusive: 25.1 µM [cytotoxic, single point]. With `COc1ccc(N(Cc2ccccc2)C(=O)c2nc(S(C)(=O)=O)ncc2Cl)cc1` the Potency was active: 7.94 µM. With `COc1ccc(C2CC(=O)c3c([nH]c(C(=O)OCc4ccccc4)c3C)C2)cc1` (centres undefined) the Potency was inconclusive: 10 µM [cytotoxic, partial curve]. With `Fc1ccc(Nc2nc(SCc3ccccc3Cl)nc3ccccc23)cc1` the Potency was inconclusive: 20 µM [cytotoxic, single point]. With `COc1ccc(CSc2nc3ccncc3n2CC(=O)Nc2cc(C)cc(C)c2)cc1` the Potency was inconclusive: 12.6 µM [cytotoxic, partial curve]. In the case of `COc1ccc(-n2nc3ccc(NC(=O)c4c(OC)cccc4OC)cc3n2)cc1`, the “activity change, negative = cytotoxicity” value is reported as inactive: -1.16%. In the case of `CC(=O)Nc1ccc(N/C=C/C(=O)c2ccco2)cc1`, the Potency is reported as inconclusive: 12.6 µM [cytotoxic, single point]. In the case of `COC(=O)c1ccc(NC(=O)CN2CCCN(Cc3ccc(Cl)cc3)S2(=O)=O)cc1`, the “activity change, negative = cytotoxicity” value is reported as inactive: -18.7%. With `Cc1ccc(CN(Cc2ccco2)C(=O)c2ccc(Cl)cc2Cl)cc1` the “activity change, negative = cytotoxicity” value was inactive: 3.1%. In the case of `Cc1cccc(NC(=O)CSc2ncc(-c3ccc(Br)cc3)[nH]2)c1`, the Potency is reported as inconclusive: 35.5 µM [cytotoxic, single point]. With `Cc1oc(-c2ccccc2Cl)nc1CSCC(=O)N1CCCC1` the Potency was inconclusive: 1.26 µM [cytotoxic, full curve, poor fit]. For `CCCc1nc(NCc2ccncc2)c2nnn(Cc3ccccc3F)c2n1`, the Potency was inconclusive: 25.1 µM [cytotoxic, single point]. For `Oc1ccccc1-c1nnc(SCCN2CCOCC2)n1Cc1ccccc1`, the Potency was inconclusive: 31.6 µM [cytotoxic, single point]. In the case of `c1ccc(-n2ncc3c(NCc4ccco4)ncnc32)cc1`, the Potency is reported as inconclusive: 25.1 µM [cytotoxic, partial curve]. In the case of `Cc1ccc(C(=O)Nc2nnc(S(=O)(=O)N(C)Cc3ccc(Cl)cc3)s2)cc1`, the “activity change, negative = cytotoxicity” value is reported as inactive: -7.5%. With `O=C(c1cc(-c2cccc(O)c2)on1)N1CCOCC1` the Potency was active: 10 µM. With `CC1CCN(c2nc(-c3ccc(C(C)(C)C)cc3)nc3ccccc23)CC1` the Potency was active: 15.8 µM. For `CCOC(=O)C1=C(C)N=C2SC(CC)C(=O)N2C1c1ccc(OC(C)=O)c(OCC)c1` (centres undefined), the “activity change, negative = cytotoxicity” value was inactive: 11.5%. With `COc1ccc(CCNc2nc(C)nc3c2oc2ccccc23)cc1OC` the Potency was inconclusive: 15.8 µM [cytotoxic, single point]. With `COCCCNC(=O)c1ccc(Cn2c(SCc3ccc(F)cc3)nc3cccnc32)cc1` the Potency was active: 11.2 µM. For `CC(=O)c1ccc(N2CCN(C(=O)c3cc(S(=O)(=O)N4CCCCCC4)cn3C)CC2)cc1`, the Potency was inconclusive: 25.1 µM [cytotoxic, single point]. In the case of `COCC(=O)N1CCC2(CC1)CCN(C(=O)Nc1cccc(F)c1)CC2`, the “activity change, negative = cytotoxicity” value is reported as inactive: -7%. For `Cc1ccccc1OC(=O)c1cc(-c2ccc3c(c2)OCCO3)on1`, the Potency was inconclusive: 15.8 µM [cytotoxic, single point]. For `Cc1ccc(NC(=O)c2ccc3ccccc3n2)nc1`, the Potency was active: 12.6 µM. With `COc1ccc(OCc2cccc(C(=O)O)c2)cc1` the Potency was active: 6.31 µM. In the case of `C[N+](C)(C)[C@H](Cc1c[nH]c(=S)[nH]1)C(=O)O`, the activity change, negative = cytotoxicity is reported as inactive: -3.05% [at 9.22 µM]. With `O=C(Nc1ccc2c(c1)OCCO2)c1cccnc1` the Potency was inconclusive: 10 µM [cytotoxic, partial curve]. With `COc1ccc(NC(=O)c2ccc3oc(=O)c(S(=O)(=O)c4ccc(F)cc4)cc3c2)cc1OC` the Potency was inconclusive: 31.6 µM [cytotoxic, single point]. For `Cc1ccc(-c2cc3c(nn2)-c2ccccc2C3=O)cc1`, the Potency was active: 0.501 µM. With `Nc1nc(COc2ccc3ccccc3c2)cs1` the Potency was inconclusive: 31.6 µM [cytotoxic, single point]. With `COC(=O)N1CCC2(CC1)CN(c1cccc(-c3ccccc3)c1)C2` the “activity change, negative = cytotoxicity” value was inactive: -4.1%. In the case of `Cc1ccccc1Cn1c(-c2cccs2)nc2ccccc21`, the Potency is reported as inconclusive: 12.6 µM [cytotoxic, partial curve]. For `CC(C)(C)CC(C)(C)c1ccc(O)c(Cc2ccc(Cl)cc2Cl)c1`, the Potency was inconclusive: 31.6 µM [cytotoxic, single point]. With `O=C(NC1CCCCC1)c1ccc2c(c1)N(Cc1ccccc1F)C(=O)c1ccccc1S2` the “activity change, negative = cytotoxicity” value was inactive: 15.2%. For `O=C(Nc1cccc2nsnc12)c1ccc2c(c1)OCCO2`, the Potency was inconclusive: 12.6 µM [cytotoxic, single point]. With `CC(C)c1nnc(NC(=O)c2cccs2)s1` the Potency was inconclusive: 15.8 µM [cytotoxic, single point]. In the case of `Cc1ccc(C(C)C)c(OCC(=O)Nc2ccc(N3CCN(S(C)(=O)=O)CC3)cc2)c1`, the “activity change, negative = cytotoxicity” value is reported as inactive: 0.478%. In the case of `CC1(C)OCC(CSC2=C(SCC3COC(C)(C)O3)C(=O)c3ncccc3C2=O)O1` (centres undefined), the Potency is reported as inconclusive: 31.6 µM [cytotoxic, single point]. For `CCN(CC)C(=O)c1sc2c(c1C)c(=O)n(CCc1ccccc1)c(=O)n2Cc1ccc(C)cc1`, the “activity change, negative = cytotoxicity” value was inactive: 25.2%. In the case of `CC(=O)Nc1ccc(S(=O)(=O)N2CCN(c3nc(NC4CCCC4)c4ccccc4n3)CC2)cc1`, the Potency is reported as inconclusive: 31.6 µM [cytotoxic, single point]. For `COc1cc(C(=O)NC(c2ccccc2Cl)c2cc(Cl)c3cccnc3c2O)cc(OC)c1OC` (centres undefined), the Potency was inconclusive: 2.51 µM [cytotoxic, single point]. With `Cc1ccc(C)c(NC(=O)CSc2nnc3[nH]c(=O)cc(-c4ccccc4)n23)c1` the Potency was inconclusive: 0.562 µM [cytotoxic, full curve]. For `c1ccc(-c2nc3c(ccc4ccccc43)[nH]2)nc1`, the Potency was inconclusive: 11.2 µM [cytotoxic, single point]. For `Cc1csc2nc(COC(=O)c3cccc(NC(=O)COc4ccccc4Cl)c3)cc(=O)n12`, the Potency was inconclusive: 10 µM [cytotoxic, partial curve]. For `Cc1ccc(NC(=O)Cn2c(-c3ccc4c(c3)OCO4)cn(-c3ccccc3)c2=O)cc1`, the “activity change, negative = cytotoxicity” value was inactive: -12.8%. In the case of `Cc1ccc(CSc2nc(=O)c3c(n2C)NC(=O)CC3c2ccc(OC(C)C)cc2)cc1` (centres undefined), the Potency is reported as inconclusive: 5.62 µM [cytotoxic, single point]. In the case of `COc1ccc(CNC(=O)CC2N=C3c4ccccc4N=C(SCC(=O)Nc4ccc(N(C)C)cc4)N3C2=O)cc1` (centres undefined), the Potency is reported as inconclusive: 35.5 µM [cytotoxic, single point]. With `O=C(COc1ccc(S(=O)(=O)NC2CCCCC2)cc1Cl)NCC1CCCO1` (centres undefined) the “activity change, negative = cytotoxicity” value was inactive: -4.33%. With `CCOC(=O)CCc1c(C)nc2c(c(C)nn2C(C)(C)C)c1C` the “activity change, negative = cytotoxicity” value was inactive: 7.44%. With `O=C(Cn1cc(SCc2cccc(Cl)c2)c2ccccc21)N1CCOCC1` the Potency was inconclusive: 35.5 µM [cytotoxic, single point].
